Each structure is given as a SMILES string. In all, about 48,000 compounds went through this assay and about 550 (1.1%) were called active. Roughly 4% stayed inconclusive and do not appear here. No stated cut-off is given here; in the data, active means potency below about 15 µM; inconclusive means mostly about 16 µM to 33 µM; inactive means weaker than that. Some of the results follow. Where only a bound is given, the exact number is not on record here.
Potency means the concentration at half of the fitted maximal effect.

Sequence of UniProt P04062 (P04062 whole entry, looked up): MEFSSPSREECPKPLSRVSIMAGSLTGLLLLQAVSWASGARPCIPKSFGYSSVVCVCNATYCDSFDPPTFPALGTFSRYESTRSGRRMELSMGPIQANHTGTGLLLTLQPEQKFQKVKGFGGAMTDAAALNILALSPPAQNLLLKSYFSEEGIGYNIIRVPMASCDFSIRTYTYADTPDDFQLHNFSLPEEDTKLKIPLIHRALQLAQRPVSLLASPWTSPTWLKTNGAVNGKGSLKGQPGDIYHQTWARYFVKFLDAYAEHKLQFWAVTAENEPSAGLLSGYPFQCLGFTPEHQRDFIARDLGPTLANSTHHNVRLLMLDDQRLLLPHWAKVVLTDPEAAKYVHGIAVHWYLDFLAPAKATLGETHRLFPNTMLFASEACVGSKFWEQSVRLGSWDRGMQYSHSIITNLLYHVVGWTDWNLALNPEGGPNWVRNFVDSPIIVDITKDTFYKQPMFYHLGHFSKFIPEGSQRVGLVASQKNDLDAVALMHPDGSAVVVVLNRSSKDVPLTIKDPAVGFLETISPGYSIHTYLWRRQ

The experiment concerns the target Lysosomal acid glucosylceramidase (Homo sapiens) (UniProt P04062). As to the kind of experiment: Glucocerebrosidase.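 Further: the screen sought inhibitors.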 As to conditions: purified enzyme, resorufin glucoside fluorescence (screen aimed at inhibitors), 20 min. The gist of the method:
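Wild-type enzyme at 0.2 nM final in 50mM citric acid/KH2PO4, 10mM sodium taurocholate, 0.01% tween-20, pH 5.9, with resorufin beta-D-glucopyranoside at 30 uM final. Compounds titrated, 20 min at RT, red fluorescence read; AC50 from titration.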
Consider `CN(C)C(=O)N1CCC(C(=O)NCC2CCCO2)CC1` (stereo not given), for which the Potency is inactive: > 76.9 µM.

For `Cc1cc(=O)oc2cc(NC(=O)CCCC(=O)O)ccc12`, the Potency was inactive: > 76.9 µM.

For `CC1(C)NC(=O)N(CCOCCSc2ccccc2)C1=O`, the Potency was inactive: > 76.9 µM.

Turning to `COc1ccc(OC)c(NC(=O)CCN2CCC(C)CC2)c1`, the Potency is inactive: > 76.9 µM.

Consider `O=C(CCS(=O)(=O)c1cccs1)N1CCCC1`, for which the Potency was inactive: > 76.9 µM.

Consider `N#Cc1c(NC(=O)CSc2ncc(-c3ccccc3)n2CC2CCCO2)sc2c1CCCC2` (stereo not given), for which the Potency was inactive: > 76.9 µM.

As for `Cc1cc2c(=O)n(CC(=O)N3CCN(c4ccccc4)CC3)cnc2s1`, the Potency was inactive: > 76.9 µM.

Regarding `CC(C)[C@@H]1NC(=O)N(c2ccc(Oc3ccccc3)cc2)C1=O`, the Potency is inactive: > 76.9 µM.

With `COc1ccc(NC(=O)C2CC(=O)OC2(C)C)cc1` (stereo not given), the Potency is inactive: > 76.9 µM.

Take `CCc1ccc(NC2=NC(C(=O)NC3CCCCC3)CC(=O)N2)cc1` (stereo not given): the Potency was inactive: > 76.9 µM.

Take `O=C(COc1ncnc2ccccc12)N1CCN(S(=O)(=O)c2ccccc2)CC1`: the Potency is inactive: > 76.9 µM.

As to `CCOC(=O)c1c(C)[nH]c(C(=O)COC(=O)c2cn(CC)c3nc(C)ccc3c2=O)c1C`, the Potency is inactive: > 76.9 µM.

As for `O=C(Cc1cccs1)N1CCN(C(=O)C2CCCO2)CC1` (stereo not given), the Potency is inactive: > 76.9 µM.

With `O=C(NCc1ccco1)c1ccc2c(c1)C(=O)N(Cc1ccccc1)C2=O`, the Potency was inactive: > 76.9 µM.

For `O=C(Cn1nc(C(F)(F)F)c2c1CCC2)N1CCN(c2ccccc2)CC1`, the Potency was inactive: > 76.9 µM.

As to `O=C1NCCCC1C(=O)Nc1ccccn1` (stereo not given), the Potency is inactive: > 76.9 µM.

For `Cc1nn(-c2ccccc2)c2sc(C(=O)OCC(=O)N3CCCCC3)cc12`, the Potency is inactive: > 76.9 µM.

Take `Cc1ncsc1CCSc1n[nH]c(=O)n1-c1ccccc1`: the Potency is inactive: > 76.9 µM.

As for `CCCOc1ccc2c3c(c(=O)oc2c1)CCCC3`, the Potency is inactive: > 76.9 µM.

Take `CCOC(=O)CN1C(=O)C(CC)Oc2ccccc21` (stereo not given): the Potency was inactive: > 76.9 µM.

As for `O=C(c1ccc2c(=O)n(-c3ccccc3)c(=O)[nH]c2c1)N1CCN(c2ccc(F)cc2)CC1`, the Potency was inactive: > 76.9 µM.

Regarding `CC(=O)N1CCCc2cc(S(=O)(=O)N(CC(C)C)CC(C)C)ccc21`, the Potency is inactive: > 76.9 µM.

With `Cc1ccc(-n2nnnc2SCC(=O)N2CCc3ccccc3C2)c(C)c1`, the Potency was inactive: > 76.9 µM.

On to `COC(=O)c1[nH]c2cccc(OC)c2c1NC(=O)CCN1CCN(c2ccccc2OC)CC1`, for which the Potency was inactive: > 76.9 µM.

`COc1cc(C2=NOC(C(=O)NC3CCCCC3)C2)cc(OC)c1OC` (stereo not given): the Potency is inactive: > 76.9 µM.

On to `O=C(COc1ccccc1)N1CCN(c2ncnc3c2cnn3-c2ccccc2)CC1`, for which the Potency is inactive: > 76.9 µM.

In the case of `CCCS(=O)(=O)N1CCN(CCCc2ccccc2)CC1`, the Potency is inactive: > 76.9 µM.

For `COC(=O)c1[nH]c(=O)c2ccccc2c1OCc1ccccc1`, the Potency was inactive: > 76.9 µM.

Regarding `O=C(CSc1nnc(-c2ccco2)o1)NC(=O)C1COc2ccccc2O1` (stereo not given), the Potency was inactive: > 76.9 µM.

With `CCC(=O)N1CCc2cc(S(=O)(=O)N(CC)c3cccc(C)c3)ccc21`, the Potency was inactive: > 76.9 µM.

With `O=C(Cn1cnc2c(nnn2Cc2ccc(F)cc2)c1=O)N1CCCCC1`, the Potency was inactive: > 76.9 µM.

`CC1=CC(C)C(/C=N/n2cnnc2)C(C)C1` (stereo not given): the Potency was inactive: > 76.9 µM.

Regarding `CCOc1cc2[nH]c(=S)n(CCCCC(=O)NCc3ccco3)c(=O)c2cc1OCC`, the Potency was inactive: > 76.9 µM.

As for `N=c1c2c(-c3ccccc3)c(-c3ccccc3)oc2ncn1CCN1CCOCC1`, the Potency was inactive: > 76.9 µM.

Take `Cc1cnc(NC(=O)c2c(O)c3cccc4c3n(c2=O)CCC4)s1`: the Potency is inactive: > 76.9 µM.

Turning to `O=C(c1ccco1)N1CCN(C(=O)c2cc(-c3ccccn3)nc3ccc(Cl)cc23)CC1`, the Potency was inactive: > 76.9 µM.

As for `CC1CCN(C(=O)CSc2nncn2-c2ccccn2)CC1`, the Potency was inactive: > 76.9 µM.

Turning to `CC(C)Oc1cccc(-c2cc(C(=O)N3CCN(S(C)(=O)=O)CC3)c3ccccc3n2)c1`, the Potency is inactive: > 76.9 µM.

`CCOC(=O)CCc1c(C)c2ccc(OCc3nn[nH]n3)cc2oc1=O`: the Potency was inactive: > 76.9 µM.

As for `Cc1ccc(S(=O)(=O)N(C)CC(=O)N2CCOCC2)cc1`, the Potency is inactive: > 76.9 µM.

`Cn1c(SCC(=O)N2CCN(Cc3ccccc3)CC2)nnc1-c1ccncc1`: the Potency is inactive: > 76.9 µM.

Turning to `CCc1nnc(NC(=O)C2CC(=O)N(Cc3ccco3)C2)s1` (stereo not given), the Potency is inactive: > 76.9 µM.

On to `Cc1ccc2c(c1)c1ncnc(N3CCc4ccccc4C3)c1n2C`, for which the Potency was inactive: > 76.9 µM.

With `CCOc1ccccc1-n1c(SCC(=O)N2CCCC2)nnc1-c1ccoc1C`, the Potency is inactive: > 76.9 µM.

Regarding `C=CCN1CCN(C(CC(C)C)c2nnnn2CCOC)CC1` (stereo not given), the Potency was inactive: > 76.9 µM.

Regarding `N#Cc1cccc(-c2nnc(SCc3ccccc3C#N)o2)c1`, the Potency is inactive: > 76.9 µM.

`CS(=O)(=O)N(CC(=O)N1CCN(c2ccccc2F)CC1)c1ccc2c(c1)OCCO2`: the Potency is inactive: > 76.9 µM.

For `O=c1c2ccccc2nc(SCc2nnc(-c3ccccc3Br)o2)n1Cc1ccco1`, the Potency was inactive: > 76.9 µM.

On to `Cc1nnc(SCCN2CCOCC2)n1C`, for which the Potency is inactive: > 76.9 µM.

Turning to `O=C(Cc1cccs1)Nc1nnc(SCC(=O)N2CCCCC2)s1`, the Potency was inactive: > 76.9 µM.

As to `CC(=O)Nc1cccc(OCC(=O)NS(=O)(=O)c2ccc(Cl)cc2)c1`, the Potency was inactive: > 76.9 µM.

Take `COc1ccc(-c2ccc(S(=O)(=O)N3CCOCC3)cc2)cc1`: the Potency is inactive: > 76.9 µM.

Consider `Cc1c(C(=O)OCC(=O)N2c3ccccc3CC2C)oc2ccccc12` (stereo not given), for which the Potency was inactive: > 76.9 µM.

As for `CCN(CC)S(=O)(=O)c1ccc2c(c1)c(=O)c(C(=O)N1CCOCC1)cn2C`, the Potency is inactive: > 76.9 µM.

Turning to `Cc1cc(C)c2cc(C(c3nnnn3C3CCCC3)N3CCOCC3)c(=O)[nH]c2c1` (stereo not given), the Potency is inactive: > 76.9 µM.

On to `O=C(O)CNC(=O)c1ccc(OC(F)F)cc1`, for which the Potency is inactive: > 76.9 µM.

For `CCOC(=O)c1c(C)c(C(=O)Nc2cc(F)ccc2F)c(C)n1C`, the Potency is inactive: > 76.9 µM.

`Cn1c(=O)c2c(nc(SCC(=O)N3CCc4ccccc43)n2Cc2ccccc2)n(C)c1=O`: the Potency is inactive: > 76.9 µM.

`Cc1c(N=Cc2ccc(-c3ccc(Cl)cc3)o2)c(=O)n(-c2ccccc2)n1C`: the Potency was inactive: > 76.9 µM.

Turning to `COc1ccc(Cc2nnc(NC(=O)Cc3cccs3)s2)cc1OC`, the Potency is inactive: > 76.9 µM.

`COc1ccccc1NC(=O)c1ccc(NC(=O)CSc2nnnn2C)cc1`: the Potency was inactive: > 76.9 µM.

As for `O=C(NC1CCCC1)C1CCCN1C(=O)Nc1ccccc1` (stereo not given), the Potency is inactive: > 76.9 µM.

With `CCOC(=O)c1cnc(Nc2ccc(OCC)cc2)nc1C`, the Potency result is “inactive”.

Take `Cc1c(C(=O)NCc2cccs2)oc2ccc(S(=O)(=O)N3CCOCC3)cc12`: the Potency is inactive: > 76.9 µM.

`COc1ccccc1NC(=O)N1CCCC1C(=O)Nc1nnc(C(C)C)s1` (stereo not given): the Potency was inactive: > 76.9 µM.

With `Brc1cccc(-c2nnco2)c1`, the Potency was inactive: > 76.9 µM.

In the case of `C=CCNC(=O)NS(=O)(=O)c1ccc(C)cc1`, the Potency was inactive: > 76.9 µM.

In the case of `CCOC(=O)N1CCC(=C(C#N)C(=O)Nc2cc(OC)ccc2OC)CC1`, the Potency is inactive: > 76.9 µM.

For `COC(=O)CSc1nnc2c(C)cc3cc4c(cc3n12)OCCO4`, the Potency was inactive: > 76.9 µM.

On to `CCn1c(CNC(=O)c2ccco2)nnc1SCC(=O)Nc1cc(C(F)(F)F)ccc1Cl`, for which the Potency is inactive: > 76.9 µM.

Consider `Cc1cc(C)nc(NC(=O)Cc2cccs2)n1`, for which the Potency was inactive: > 76.9 µM.

Consider `Cc1ccc(C(=O)c2cncc(Br)c2)cc1`, for which the Potency is inactive: > 76.9 µM.

For `O=C(NCc1ccccc1)NC1CC2CCC(C1)N2Cc1ccco1` (stereo not given), the Potency is inactive: > 76.9 µM.

For `Clc1cccc(Nc2c3c(nc4ncnn24)CCC3)c1`, the Potency was inactive: > 76.9 µM.

Consider `COc1ccc(CCn2c(=N)c(C(=O)NCc3ccco3)cc3c(=O)n4cccc(C)c4nc32)cc1`, for which the Potency is inactive: > 76.9 µM.

As to `Cn1c2ccccc2c2nnc(SCN3C(=O)c4ccccc4C3=O)nc21`, the Potency was inactive: > 76.9 µM.

Regarding `O=C(CSc1nc2c(c(=O)n1-c1ccc(F)cc1)SCC2)NCC1CCCO1` (stereo not given), the Potency was inactive: > 76.9 µM.

Regarding `COC(=O)c1ccccc1NC(=O)NCC1CCCO1` (stereo not given), the Potency was inactive: > 76.9 µM.

As to `C/C=C/COc1nc2c(c(=O)n(C)c(=O)n2C)n1C`, the Potency is inactive: > 76.9 µM.

Consider `c1ccc(Cn2nnc3c(NCc4ccc5c(c4)OCO5)nc(C4CC4)nc32)cc1`, for which the Potency is inactive: > 76.9 µM.

For `O=C(NCc1ccco1)C(c1ccccc1F)N(CC1CCCO1)C(=O)Cn1nnc2ccccc21` (stereo not given), the Potency was inactive: > 76.9 µM.

As for `Cc1cc(C(=O)CSc2nn(-c3ccccc3)c(=S)s2)c(C)n1Cc1ccco1`, the Potency was inactive: > 76.9 µM.

For the compound `Cc1oc(-c2ccc(Cl)cc2)cc1-c1nn2c(-c3ccoc3C)nnc2s1`, the Potency is inactive: > 76.9 µM.

As for `Cc1cc(SCC(=O)N2CCCC2)nc2ccccc12`, the Potency is inactive: > 76.9 µM.

For `Cc1ccc(S(=O)(=O)c2nc(C(C)(C)C)oc2N2CCOCC2)cc1`, the Potency was inactive: > 76.9 µM.

As for `O=CNCCCc1nc2ccccc2n1Cc1ccccc1`, the Potency was inactive: > 76.9 µM.

As to `COc1ccccc1NC(=O)Nc1ccc(Br)cn1`, the Potency was inactive: > 76.9 µM.

Take `CCn1c(SCc2nc3ccccc3c(=O)[nH]2)nnc1-c1cccnc1`: the Potency is inactive: > 76.9 µM.

With `COc1cccc(C(=O)Cn2c(N3CCCCC3)nc3c2c(=O)n(C)c(=O)n3C)c1`, the Potency is inactive: > 76.9 µM.

Turning to `c1cnc2c(OCc3nc4ccccc4[nH]3)cccc2c1`, the Potency was inactive: > 76.9 µM.
